# Experimental data reported in the supplement of paper PMC8728848.
# The list shows a part of the results.
# B1: Clec2 (Mus musculus), Q9JL99 (protein)
# chain: MQDEDGYITLNIKPRKQALSSAEPASSWWRVMALVLLISSMGLVVGLVALGIMSVTQQKYLLAEKENLSATLQQLAKKFCQELIRQSEIKTKSTFEHKCSPCATKWRYHGDSCYGFFRRNLTWEESKQYCTEQNATLVKTASQSTLDYIAERITSVRWIGLSRQNSKKDWMWEDSSVLRKNGINLSGNTEENMNCAYLHNGKIHPASCKERHYLICERNAGMTRVDQLL
# Legend:
# Assay in all cases: glycan array binding signal (z-score within array); higher = stronger binding
# Conditions in all cases: glycan notation: IUPAC condensed, linker removed
# [1] = target: Neu5Ac(a2-6)Gal(b1-4)GlcNAc(b1-3)Gal(b1-4)GlcNAc(b1-3)Gal(b1-4)GlcNAc
# Summary of the method: (§1)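 Glycan array data were curated from 3228 arrays in the Consortium for Functional Glycomics database and kept only where the protein sequence was available. Glycan names were converted to IUPAC-condensed notation, and columns mapping to the same glycan were averaged. The binding signal is a within-array Z-score, averaged across arrays of the same protein sequence at different concentrations or buffers and across linkers. Negative Z-scores can be read as non-binding.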
# [2] = target: Neu5Ac(a2-6)Gal(b1-4)GlcNAc(b1-3)Gal(b1-4)GlcNAc(b1-3)Gal(b1-4)GlcNAc(b1-2)Man(a1-3)[Neu5Ac(a2-6)Gal(b1-4)GlcNAc(b1-3)Gal(b1-4)GlcNAc(b1-3)Gal(b1-4)GlcNAc(b1-2)Man(a1-6)]GalNAc
# Summary of the method: as §1
# [3] = target: Neu5Ac(a2-6)Gal(b1-4)GlcNAc(b1-3)Gal(b1-4)GlcNAc(b1-3)GalNAc
# Summary of the method: as §1
# [4] = target: Neu5Ac(a2-6)Gal(b1-4)GlcNAc(b1-3)Gal(b1-4)GlcNAc(b1-3)[Neu5Ac(a2-6)Gal(b1-4)GlcNAc(b1-3)Gal(b1-4)GlcNAc(b1-6)]GalNAc
# Summary of the method: as §1
# [5] = target: Neu5Ac(a2-6)Gal(b1-4)GlcNAc(b1-3)Gal(b1-4)GlcNAc(b1-6)[Gal(b1-3)]GalNAc
# Summary of the method: as §1
# [6] = target: Neu5Ac(a2-6)Gal(b1-4)GlcNAc(b1-3)Gal(b1-4)[Fuc(a1-3)]GlcNAc(b1-3)Gal(b1-4)[Fuc(a1-3)]GlcNAc
# Summary of the method: as §1
# [7] = target: Neu5Ac(a2-6)Gal(b1-4)GlcNAc(b1-3)GalNAc
# Summary of the method: as §1
# [8] = target: Neu5Ac(a2-6)Gal(b1-4)GlcNAc(b1-3)[Neu5Ac(a2-6)Gal(b1-4)GlcNAc(b1-6)]GalNAc
# Summary of the method: as §1
# [9] = target: Neu5Ac(a2-6)Gal(b1-4)GlcNAc(b1-6)GalNAc
# Summary of the method: as §1
# [10] = target: Neu5Ac(a2-6)Gal(b1-4)GlcNAc(b1-6)[Gal(b1-3)GlcNAc(b1-3)]Gal(b1-4)Glc
# Summary of the method: as §1
# [11] = target: Neu5Ac(a2-6)Gal(b1-4)GlcNAc(b1-6)[Gal(b1-3)]GalNAc
# Summary of the method: as §1
# [12] = target: Neu5Ac(a2-6)Gal(b1-4)GlcNAc6S
# Summary of the method: as §1
# Neu5Ac(a2-6)GalNAc = target: Neu5Ac(a2-6)GalNAc
# Summary of the method: as §1
# [13] = target: Neu5Ac(a2-6)GalNAc(b1-4)GlcNAc
# Summary of the method: as §1
# [14] = target: Neu5Ac(a2-6)GalNAc(b1-4)GlcNAc6S
# Summary of the method: as §1
# [15] = target: Neu5Ac(a2-6)GlcNAc(b1-4)GlcNAc
# Summary of the method: as §1
# [16] = target: Neu5Ac(a2-6)GlcNAc(b1-4)GlcNAc(b1-4)GlcNAc
# Summary of the method: as §1
# Neu5Ac(a2-8)Neu5Ac = target: Neu5Ac(a2-8)Neu5Ac
# Summary of the method: as §1
# [17] = target: Neu5Ac(a2-8)Neu5Ac(a2-3)Gal(b1-3)GalNAc(b1-4)[Neu5Ac(a2-3)]Gal(b1-4)Glc
# Summary of the method: as §1
# [18] = target: Neu5Ac(a2-8)Neu5Ac(a2-3)Gal(b1-3)GalNAc(b1-4)[Neu5Ac(a2-8)Neu5Ac(a2-3)]Gal(b1-4)Glc
# Summary of the method: as §1
# [19] = target: Neu5Ac(a2-8)Neu5Ac(a2-3)Gal(b1-4)Glc
# Summary of the method: as §1
# [20] = target: Neu5Ac(a2-8)Neu5Ac(a2-3)Gal(b1-4)GlcNAc
# Summary of the method: as §1
# [21] = target: Neu5Ac(a2-8)Neu5Ac(a2-3)[Gal(b1-3)GalNAc(b1-4)]Gal(b1-4)Glc
# Summary of the method: as §1
# [22] = target: Neu5Ac(a2-8)Neu5Ac(a2-3)[GalNAc(b1-4)]Gal(b1-4)Glc
# Summary of the method: as §1
# [23] = target: Neu5Ac(a2-8)Neu5Ac(a2-8)Neu5Ac
# Summary of the method: as §1
# [24] = target: Neu5Ac(a2-8)Neu5Ac(a2-8)Neu5Ac(a2-3)Gal(b1-4)Glc
# Summary of the method: as §1
# [25] = target: Neu5Ac(a2-8)Neu5Ac(a2-8)Neu5Ac(a2-3)[Gal(b1-3)GalNAc(b1-4)]Gal(b1-4)Glc
# Summary of the method: as §1
# [26] = target: Neu5Ac(a2-8)Neu5Ac(a2-8)Neu5Ac(a2-3)[GalNAc(b1-4)]Gal(b1-4)Glc
# Summary of the method: as §1
# [27] = target: Neu5Ac(a2-8)Neu5Ac(a2-8)Neu5Ac(a2-8)Neu5Ac(a2-3)[GalNAc(b1-4)]Gal(b1-4)Glc
# Summary of the method: as §1
# [28] = target: Neu5Ac(a2-8)Neu5Gc(a2-3)Gal(b1-4)GlcNAc
# Summary of the method: as §1
# [29] = target: Neu5Ac(b2-6)Gal(b1-4)GlcNAc
# Summary of the method: as §1
# Neu5Ac(b2-6)GalNAc = target: Neu5Ac(b2-6)GalNAc
# Summary of the method: as §1
# [30] = target: Neu5Ac9Ac(a2-3)Gal(b1-3)GlcNAc
# Summary of the method: as §1
# [31] = target: Neu5Ac9Ac(a2-3)Gal(b1-4)GlcNAc
# Summary of the method: as §1
# [32] = target: Neu5Ac9Ac(a2-6)Gal(b1-4)GlcNAc
# Summary of the method: as §1
# [33] = target: Neu5Gc(a2-3)Gal(b1-3)GlcNAc
# Summary of the method: as §1
# [34] = target: Neu5Gc(a2-3)Gal(b1-3)[Fuc(a1-4)]GlcNAc
# Summary of the method: as §1
# Neu5Gc(a2-3)Gal(b1-4)Glc = target: Neu5Gc(a2-3)Gal(b1-4)Glc
# Summary of the method: as §1
# [35] = target: Neu5Gc(a2-3)Gal(b1-4)GlcNAc
# Summary of the method: as §1
# [36] = target: Neu5Gc(a2-3)Gal(b1-4)GlcNAc(b1-3)Gal(b1-4)GlcNAc(b1-2)Man(a1-3)[Neu5Gc(a2-3)Gal(b1-4)GlcNAc(b1-3)Gal(b1-4)GlcNAc(b1-2)Man(a1-6)]Man(b1-4)GlcNAc(b1-4)GlcNAc
# Summary of the method: as §1
# [37] = target: Neu5Gc(a2-3)Gal(b1-4)[Fuc(a1-3)]GlcNAc
# Summary of the method: as §1
# [38] = target: Neu5Gc(a2-6)Gal(b1-4)GlcNAc
# Summary of the method: as §1
# Neu5Gc(a2-6)GalNAc = target: Neu5Gc(a2-6)GalNAc
# Summary of the method: as §1
# [39] = target: Neu5Gc(a2-8)Neu5Ac(a2-3)Gal(b1-4)GlcNAc
# Summary of the method: as §1
# [40] = target: Neu5Gc(a2-8)Neu5Gc(a2-3)Gal(b1-4)GlcNAc
# Summary of the method: as §1
binder,measurement,setting,value
B1,glycan array binding signal (z-score),[1],-0.598
same,glycan array binding signal (z-score),[2],4.45
same,glycan array binding signal (z-score),[3],-0.69
same,glycan array binding signal (z-score),[4],-0.008
same,glycan array binding signal (z-score),[5],-0.808
same,glycan array binding signal (z-score),[6],-0.137
same,glycan array binding signal (z-score),[7],-0.524
same,glycan array binding signal (z-score),[8],-0.848
same,glycan array binding signal (z-score),[9],0.805
same,glycan array binding signal (z-score),[10],-0.654
same,glycan array binding signal (z-score),[11],-0.259
same,glycan array binding signal (z-score),[12],2.24
same,glycan array binding signal (z-score),Neu5Ac(a2-6)GalNAc,0.012
same,glycan array binding signal (z-score),[13],-0.445
same,glycan array binding signal (z-score),[14],0.775
same,glycan array binding signal (z-score),[15],-0.572
same,glycan array binding signal (z-score),[16],-1.13
same,glycan array binding signal (z-score),Neu5Ac(a2-8)Neu5Ac,0.004
same,glycan array binding signal (z-score),[17],-0.592
same,glycan array binding signal (z-score),[18],0.041
same,glycan array binding signal (z-score),[19],-0.068
same,glycan array binding signal (z-score),[20],-0.653
same,glycan array binding signal (z-score),[21],-0.245
same,glycan array binding signal (z-score),[22],-0.022
same,glycan array binding signal (z-score),[23],-0.471
same,glycan array binding signal (z-score),[24],-0.316
same,glycan array binding signal (z-score),[25],-0.456
same,glycan array binding signal (z-score),[26],-0.269
same,glycan array binding signal (z-score),[27],-0.202
same,glycan array binding signal (z-score),[28],-0.442
same,glycan array binding signal (z-score),[29],0.023
same,glycan array binding signal (z-score),Neu5Ac(b2-6)GalNAc,-0.171
same,glycan array binding signal (z-score),[30],0.778
same,glycan array binding signal (z-score),[31],-0.553
same,glycan array binding signal (z-score),[32],-0.518
same,glycan array binding signal (z-score),[33],-0.366
same,glycan array binding signal (z-score),[34],0.119
same,glycan array binding signal (z-score),Neu5Gc(a2-3)Gal(b1-4)Glc,-0.112
same,glycan array binding signal (z-score),[35],-0.657
same,glycan array binding signal (z-score),[36],-0.189
same,glycan array binding signal (z-score),[37],0.278
same,glycan array binding signal (z-score),[38],-0.494
same,glycan array binding signal (z-score),Neu5Gc(a2-6)GalNAc,-0.517
same,glycan array binding signal (z-score),[39],-0.442
same,glycan array binding signal (z-score),[40],-0.501
